From ChEMBL document CHEMBL5308541, “MAIP: An Open-Source Tool to Enrich High-Throughput Screening Output and Identify Novel, Druglike Molecules with Antimalarial Activity” (ACS Med Chem Lett, 2023)
Among all 150,000 compounds or so, about 540 (0.36%) showed an effect of 50% or more. This is one part of the list.

Tested on: Plasmodium falciparum
Assay: Primary screen in NF54 nanoGlo assay, in single point, at 2uM, 72h; a lower Z score goes with more inhibition
Assay type: functional, Erythrocyte
Conditions: timepoint 72 hour

SMILES | % Inhibition | Z score
c1ccc(-c2noc([C@@]34CCC[C@@H]3CN(CCCN3CCOCC3)C4)n2)cc1 | -9% | 1.35
Nc1ccc2c(ccn2Cc2ccc(Cl)cc2)c1 | 0% | 0
O=C(Cc1cc(F)c(F)cc1F)Nc1ccc2[nH]ccc2c1 | -4% | 0.69
CCN(CC)CCN1CCC(S(=O)(=O)N2CCCC2)CC1 | 5% | -0.85
CC(c1ccc(OC(F)(F)F)cc1)N(C)C1CCN(C2CCN(C)CC2)C1 (stereo unspecified) | 7% | -1.44
COCCN1CCC[C@H](CNc2ccc(-c3ccccc3)nn2)C1 | -1% | 0.21
Cc1cc(N[C@@H](CO)c2ccccc2)nc(N(C)C)n1 | -19% | 3.27
CC(C)COc1ccccc1-c1cc(N2CCN(C)CC2)nc(N)n1 | -2% | 0.36
CC(C)Cc1noc(CN(C)C(=O)NCc2cncn2C2CC2)n1 | 3% | -0.73
Cc1ccc(NC(=O)Nc2cccc3c2CCN(C(=O)C2CCOCC2)C3)cc1 | -5% | 1.09
Cc1cccc2[nH]c(C3CCN(C(=O)[C@@H]4CC5(CCNCC5)CN4)CC3)nc12 | 0% | 0.01
O=C(Nc1cn(Cc2ccccc2)nn1)N1CCCC[C@H]1C(F)F | 0% | 0.05
COC(CN(Cc1nc(N)nc(Nc2ccc(C)cc2)n1)Cc1nc(N)nc(Nc2ccc(C)cc2)n1)OC | 85% | -18.33
Cc1nccn1-c1ccc(NC(=O)[C@H]2CCCN(Cc3nc4cc(F)ccc4[nH]3)C2)cc1 | -5% | 0.81
CNC(=O)[C@@H]1CC2(CCN(CC3CCCCC3)CC2)CN1c1ccc(C#N)c(C(F)(F)F)c1 | -15% | 2.59
N#Cc1ccc(N2CCC(O)(c3cccc4cnccc34)CC2)nc1 | -12% | 2.12
CC(C)CC(C(=O)NC1CCN(CC(=O)Nc2ccccc2)CC1)N1C(=O)C2CC=CCC2C1=O (stereo unspecified) | -4% | 0.54
N#CC1CCCC(NCCCn2cccn2)C1 (stereo unspecified) | 7% | -1.3
COc1ccc2occ(C(=O)N[C@H]3CCO[C@@H]3c3cccnc3)c2c1 | 7% | -1.24
COc1ccc2[nH]c(CN(Cc3cccnc3)CC3CCN(C4CCCC4)CC3)c(C)c2c1 | 1% | -0.23
CCc1cc(=O)[nH]c(Nc2ccc(N3CCN(C)CC3)cc2)n1 | -5% | 0.78
COc1ccnc(NC2CCN(Cc3cccc(O)c3)CC2)n1 | 2% | -0.29
O=C(NCC1CCCCC1)c1cn2cc(-c3ccc(Oc4ccccc4)cc3)ccc2n1 | 2% | -0.31
